# Results: the supplement of paper PMC8728848
# The list shows a part of the results.
# How the values were obtained:
# Assay in all cases: glycan array binding signal (z-score within array); higher = stronger binding
# Details in all cases: glycan notation: IUPAC condensed, linker removed
# Neu5Ac(a2-6)Gal(b1-4)Glc = molecular target: Neu5Ac(a2-6)Gal(b1-4)Glc
# In short: (§1)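 Negative Z-scores can be read as non-binding. The Z-score is calculated within each array and then averaged across arrays of one protein sequence at different concentrations or buffers and across linkers. Arrays, 3228 in all, were curated from the Consortium for Functional Glycomics database and kept only where the protein sequence was available.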
# [1] = molecular target: Neu5Ac(a2-6)Gal(b1-4)GlcNAc
# In short: as §1
# [2] = molecular target: Neu5Ac(a2-6)Gal(b1-4)GlcNAc(b1-2)Man
# In short: as §1
# [3] = molecular target: Neu5Ac(a2-6)Gal(b1-4)GlcNAc(b1-2)Man(a1-3)Man(b1-4)GlcNAc(b1-4)GlcNAc
# In short: as §1
# [4] = molecular target: Neu5Ac(a2-6)Gal(b1-4)GlcNAc(b1-2)Man(a1-3)[Gal(b1-4)GlcNAc(b1-2)Man(a1-6)]Man(b1-4)GlcNAc(b1-4)GlcNAc
# In short: as §1
# [5] = molecular target: Neu5Ac(a2-6)Gal(b1-4)GlcNAc(b1-2)Man(a1-3)[GlcNAc(b1-2)Man(a1-6)]Man(b1-4)GlcNAc(b1-4)GlcNAc
# In short: as §1
# [6] = molecular target: Neu5Ac(a2-6)Gal(b1-4)GlcNAc(b1-2)Man(a1-3)[GlcNAc(b1-4)][Neu5Ac(a2-6)Gal(b1-4)GlcNAc(b1-2)Man(a1-6)]Man(b1-4)GlcNAc(b1-4)GlcNAc
# In short: as §1
# [7] = molecular target: Neu5Ac(a2-6)Gal(b1-4)GlcNAc(b1-2)Man(a1-3)[Man(a1-6)]Man(b1-4)GlcNAc(b1-4)GlcNAc
# In short: as §1
# [8] = molecular target: Neu5Ac(a2-6)Gal(b1-4)GlcNAc(b1-2)Man(a1-3)[Neu5Ac(a2-3)Gal(b1-4)GlcNAc(b1-2)Man(a1-6)]Man(b1-4)GlcNAc(b1-4)GlcNAc
# In short: as §1
# [9] = molecular target: Neu5Ac(a2-6)Gal(b1-4)GlcNAc(b1-2)Man(a1-3)[Neu5Ac(a2-6)Gal(b1-4)GlcNAc(b1-2)Man(a1-6)]Man(b1-4)GlcNAc(b1-4)GlcNAc
# In short: as §1
# [10] = molecular target: Neu5Ac(a2-6)Gal(b1-4)GlcNAc(b1-2)Man(a1-3)[Neu5Ac(a2-6)Gal(b1-4)GlcNAc(b1-2)Man(a1-6)]Man(b1-4)GlcNAc(b1-4)[Fuc(a1-6)]GlcNAc
# In short: as §1
# [11] = molecular target: Neu5Ac(a2-6)Gal(b1-4)GlcNAc(b1-2)Man(a1-6)Man(b1-4)GlcNAc(b1-4)GlcNAc
# In short: as §1
# [12] = molecular target: Neu5Ac(a2-6)Gal(b1-4)GlcNAc(b1-2)Man(a1-6)[Gal(b1-4)GlcNAc(b1-2)Man(a1-3)]Man(b1-4)GlcNAc(b1-4)GlcNAc
# In short: as §1
# [13] = molecular target: Neu5Ac(a2-6)Gal(b1-4)GlcNAc(b1-2)Man(a1-6)[GlcNAc(b1-2)Man(a1-3)]Man(b1-4)GlcNAc(b1-4)GlcNAc
# In short: as §1
# [14] = molecular target: Neu5Ac(a2-6)Gal(b1-4)GlcNAc(b1-2)Man(a1-6)[Man(a1-3)]Man(b1-4)GlcNAc(b1-4)GlcNAc
# In short: as §1
# [15] = molecular target: Neu5Ac(a2-6)Gal(b1-4)GlcNAc(b1-2)[Neu5Ac(a2-6)Gal(b1-4)GlcNAc(b1-4)]Man(a1-3)[GlcNAc(b1-4)][Neu5Ac(a2-6)Gal(b1-4)GlcNAc(b1-2)[Neu5Ac(a2-6)Gal(b1-4)GlcNAc(b1-6)]Man(a1-6)]Man(b1-4)GlcNAc(b1-4)GlcNAc
# In short: as §1
# [16] = molecular target: Neu5Ac(a2-6)Gal(b1-4)GlcNAc(b1-2)[Neu5Ac(a2-6)Gal(b1-4)GlcNAc(b1-4)]Man(a1-3)[GlcNAc(b1-4)][Neu5Ac(a2-6)Gal(b1-4)GlcNAc(b1-4)Man(a1-6)]Man(b1-4)GlcNAc(b1-4)GlcNAc
# In short: as §1
# [17] = molecular target: Neu5Ac(a2-6)Gal(b1-4)GlcNAc(b1-2)[Neu5Ac(a2-6)Gal(b1-4)GlcNAc(b1-6)]Man(a1-6)[Neu5Ac(a2-6)Gal(b1-4)GlcNAc(b1-2)Man(a1-3)][GlcNAc(b1-4)]Man(b1-4)GlcNAc(b1-4)GlcNAc
# In short: as §1
# [18] = molecular target: Neu5Ac(a2-6)Gal(b1-4)GlcNAc(b1-3)Gal(b1-3)GlcNAc
# In short: as §1
# [19] = molecular target: Neu5Ac(a2-6)Gal(b1-4)GlcNAc(b1-3)Gal(b1-4)GlcNAc
# In short: as §1
# [20] = molecular target: Neu5Ac(a2-6)Gal(b1-4)GlcNAc(b1-3)Gal(b1-4)GlcNAc(b1-2)Man(a1-3)[Neu5Ac(a2-6)Gal(b1-4)GlcNAc(b1-3)Gal(b1-4)GlcNAc(b1-2)Man(a1-6)]GalNAc
# In short: as §1
# [21] = molecular target: Neu5Ac(a2-6)Gal(b1-4)GlcNAc(b1-3)Gal(b1-4)GlcNAc(b1-3)Gal(b1-4)GlcNAc
# In short: as §1
# [22] = molecular target: Neu5Ac(a2-6)Gal(b1-4)GlcNAc(b1-3)Gal(b1-4)GlcNAc(b1-3)Gal(b1-4)GlcNAc(b1-2)Man(a1-3)[Neu5Ac(a2-6)Gal(b1-4)GlcNAc(b1-3)Gal(b1-4)GlcNAc(b1-3)Gal(b1-4)GlcNAc(b1-2)Man(a1-6)]GalNAc
# In short: as §1
binder,measurement,setting,value
PX9961H-bth-557-24-557 (Bacteroides thetaiotaomicron) (protein) EETRTEVEKKNYMNNAEEAKDVLLGVYRTNTLDAMYGYYLSILFNLGTDISQVEGSGNENFRIIPTNSFPTTQSEVQQTWAALYTGIYRANDFLERISNKIGSYTTTDKKLATLYIAEARALRGMFYFELVRRFGNVVLMTSTQMSNQNPATYVQSAPEKVYEYIEDDLLYACDILPYATDDQYRESNDYRFSKGAALGLLTKVYATWAGYPVKDESKWEAAAKTARILVESGKHGLLKDYEQLWKNTCNGTWDPTESLIEISFYSPTVSGNSDPVGRIGKWNGVKTTAIAGVRGSCAANVKVVHTFVLDWREDVSDIRRDLSIANYQYTDTKKSLWVAGASDTDESAAEKDADPTKAQKNKQNYTPAKWDIQKYVTTNSFINNDKSNVNWYFLRYADVLLLYAEALNEWKHGPDAEAYNAINAVRRRGYGNPSNTSACDLPQGLDETSFREAVRKERSYELSFEGHRRQDLIRWGIYYKTVQATAKELGYWWEGTGSPNYSVATYTEEGKHELFPIPQRDMDLCIQFNQNPKW,glycan array binding signal (z-score),Neu5Ac(a2-6)Gal(b1-4)Glc,-0.393
same,glycan array binding signal (z-score),[1],-0.248
same,glycan array binding signal (z-score),[2],-0.461
same,glycan array binding signal (z-score),[3],-0.496
same,glycan array binding signal (z-score),[4],0.436
same,glycan array binding signal (z-score),[5],0.077
same,glycan array binding signal (z-score),[6],-0.374
same,glycan array binding signal (z-score),[7],-0.405
same,glycan array binding signal (z-score),[8],-0.354
same,glycan array binding signal (z-score),[9],-0.217
same,glycan array binding signal (z-score),[10],-0.319
same,glycan array binding signal (z-score),[11],-0.491
same,glycan array binding signal (z-score),[12],-0.596
same,glycan array binding signal (z-score),[13],-0.061
same,glycan array binding signal (z-score),[14],-0.077
same,glycan array binding signal (z-score),[15],-0.327
same,glycan array binding signal (z-score),[16],-0.286
same,glycan array binding signal (z-score),[17],-0.503
same,glycan array binding signal (z-score),[18],-0.166
same,glycan array binding signal (z-score),[19],-0.41
same,glycan array binding signal (z-score),[20],0.218
same,glycan array binding signal (z-score),[21],-0.409
same,glycan array binding signal (z-score),[22],1.55
